According to the supplement of paper PMC4723716:
± gives the uncertainty stated by the source. In all, about 9,900 compounds were measured (“viability index relative to DMSO control”: median about 1, lowest 2% from about 0.85 on). This is one part of the list.

Test system: Plasmodium falciparum NF54 stage V gametocytes
Assay: viability index relative to DMSO control (fraction); higher = less gametocyte killing
Conditions: 2.5 µM, incubation time: 72 h
Outline: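 Stage V gametocytes of P. falciparum NF54 were held in serum-free screening medium at 0.75% gametocytemia and 1.25% hematocrit, 10 µl per well of a 1,536-well plate, and exposed to compound at 2.5 µM for 72 hr at 37°C under low oxygen. A 3 µl mix of 2.5 µM MitoTracker Red CMXRos with 0.13% saponin was then added for one to two hours, after which one field per well was imaged and red particles of 20–70 µm2 were counted. The viability index equals this count divided by the plate mean from wells given solvent alone.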

[1] = library set: Broad Institute DOS

Row | Structure (SMILES) | viability index [1] | viability index (library set: Broad Institute Blood Stage)
1 | C[C@@H]1CN([C@H](C)CO)C(=O)c2cc(NC(=O)C3CCCCC3)ccc2O[C@@H](C)CCCCO[C@@H]1CN(C)C(=O)CCC(F)(F)F | 0.817 ± 0.26 | 
2 | O=C(C[C@@H]1C[C@H]2c3cc(NS(=O)(=O)c4ccc(F)cc4)ccc3O[C@H]2[C@H](CO)O1)NCCN1CCCCC1 | 1.06 ± 0.028 | 
3 | CO[C@@H](CN(C)S(=O)(=O)c1cccc(Cl)c1)[C@H](C)CN(C(=O)Nc1ccccc1F)[C@@H](C)CO | 1.016 ± 0.01 | 
4 | O=C(C1CCOCC1)N1CC(=O)N2[C@H](CO)[C@H](c3ccc(C#CCc4ccccc4)cc3)[C@@H]2C1 | 1.05 ± 0.075 | 
5 | OC[C@H]1[C@@H](c2ccccc2)C2(CN(Cc3ccccc3F)C2)N1Cc1ccccc1F | 1.02 ± 0.018 | 
6 | Cc1ccccc1S(=O)(=O)N1[C@H](C#N)[C@@H](c2ccccc2-c2cccc(F)c2)[C@@H]1CO | 1.111 ± 0.003 | 
7 | Cc1noc(C)c1NC(=O)Nc1ccc2c(c1)C(=O)N(C)[C@H]1CC[C@@H](CC(=O)N[C@H]3CCN(Cc4ccccc4)C3)O[C@H]1CO2 | 1.18 ± 0.14 | 
8 | CCCNC(=O)N1CC(=O)N2[C@@H](CO)[C@@H](c3ccc(C#Cc4cccc(OC)c4)cc3)[C@@H]2C1 | 1.01 ± 0.064 | 
9 | O=C(Nc1cc(F)ccc1F)N[C@@H]1CC[C@@H](CC(=O)N2CCc3ccccc3C2)O[C@H]1CO | 1.05 ± 0.18 | 
10 | COc1ccc2c3c([C@H](CO)N(C[C@]33CN(C3)C(=O)c3ccccn3)S(=O)(=O)c3ccc(C)cc3)n(C)c2c1 | 0.992 ± 0.051 | 
11 | COCCNC(=O)C[C@H]1CC[C@H]2[C@@H](COC[C@H](O)CN2C(=O)c2cc(Cl)cc(Cl)c2)O1 | 1.05 ± 0.028 | 
12 | COc1ccccc1NC(=O)N1CCCCN2[C@H](C1)[C@H](c1ccc(-c3cccc(C#N)c3)cc1)[C@@H]2CO | 1.03 ± 0.039 | 
13 | COc1cccc(S(=O)(=O)N2C[C@@H]3N[C@H](C2)[C@H]3c2ccc(-c3ccccc3F)cc2)c1 | 1.04 ± 0.02 | 
14 | COc1cccc(-c2ccc3c(c2)[C@H]2[C@H](CCN2C(=O)c2ccccc2F)[C@H](CO)N3C)c1 | 0.926 ± 0.04 | 
15 | CO[C@H]1CN(C)C(=O)c2cc(NC(=O)NC(C)C)ccc2OC[C@@H](C)N(Cc2ccccc2)C[C@H]1C | 0.953 ± 0.03 | 
16 | O=C(Cc1cccnc1)N1CC2(C1)[C@H](c1ccccc1)[C@@H](CO)N2C(=O)C1CCOCC1 | 1.1 ± 0.013 | 
17 | COc1ccc2c3c([C@@H](CO)NC[C@]33CN(CC4CCOCC4)C3)n(C)c2c1 | 1.07 ± 0.029 | 
18 | O=C(C[C@@H]1C=C[C@@H](NC(=O)c2ccc3c(c2)OCO3)[C@@H](CO)O1)NC1Cc2ccccc2C1 | 0.963 ± 0.11 | 
19 | CO[C@H]1CN(C)C(=O)c2ccc(NS(C)(=O)=O)cc2OC[C@@H](C)N(C(=O)CN(C)C)C[C@@H]1C | 1.06 ± 0.031 | 
20 | CO[C@@H]1CN(C)C(=O)c2cc(NC(=O)CC(F)(F)F)ccc2OC[C@@H](C)N(CC2CC2)C[C@H]1C | 1.11 ± 0.012 | 
21 | O=C(Nc1ccc2c(c1)[C@H]1C[C@@H](CC(=O)N3CCCCC3)O[C@@H](CO)[C@H]1O2)NC1CCCCC1 | 1.072 ± 0.0067 | 
22 | C[C@@H](O)C#Cc1ccc([C@@H]2[C@@H](CO)N3CCCCN(C(=O)c4ccc5c(c4)OCO5)C[C@H]23)cc1 | 0.992 ± 0.017 | 

Row | Structure (SMILES) | viability index [1] | viability index (library set: Broad Institute Blood Stage)
23 | O=C(CC1CC1)N1CC(=O)N2[C@H](C1)[C@H](c1ccc(/C=C/c3ccccc3)cc1)[C@@H]2CO | 1.022 ± 0.0061 | 
24 | C[C@@H]1CCCCO[C@@H](CN(C)S(=O)(=O)c2ccc(F)cc2)[C@H](C)CN([C@@H](C)CO)C(=O)c2cc(N(C)C)ccc2O1 | 1.05 ± 0.092 | 
25 | COc1ccc(S(=O)(=O)Nc2ccc3c(c2)OC[C@H](C)NC[C@@H](C)[C@@H](OC)CN(C)C3=O)cc1 | 1.06 ± 0.034 | 
26 | CN(C)C(=O)c1cccc(-c2ccc3c(c2)[C@H]2[C@H](CCN2Cc2nccs2)[C@H](CO)N3)c1 | 0.818 ± 0.014 | 
27 | CCCNC(=O)N1[C@H](CNC(=O)c2cccc(F)c2)[C@H](c2ccccc2)[C@@H]1CO | 0.974 ± 0.06 | 
28 | CC(C)NC(=O)Nc1cccc2c1O[C@@H](CN(C)C(=O)Nc1ccccc1)[C@@H](C)CN([C@@H](C)CO)C2=O | 1.04 ± 0.011 | 
29 | C[C@H]1CN([C@@H](C)CO)C(=O)c2cccc(NC(=O)Nc3ccc(C(F)(F)F)cc3)c2O[C@H]1CN(C)S(=O)(=O)c1cn(C)cn1 | 1.03 ± 0.037 | 
30 | CO[C@H]1CN(C)C(=O)c2cc(NC(=O)Nc3cc(F)ccc3F)ccc2OC[C@H](C)NC[C@H]1C | 0.959 ± 0.049 | 
31 | COCCNC(=O)C[C@@H]1CC[C@@H]2[C@H](COc3ccc(NS(=O)(=O)c4ccc(Cl)cc4)cc3C(=O)N2C)O1 | 1.19 ± 0.055 | 
32 | O=C(c1ccc2c(c1)OCO2)N1C[C@@H]2[C@H](c3ccccc31)[C@H](CO)N2C(=O)CC1CC1 | 1.07 ± 0.021 | 
33 | C[C@@H]1CN([C@H](C)CO)C(=O)Cc2cc(NC(=O)C3CCCCC3)ccc2O[C@@H]1CN(C)Cc1ccc(Cl)c(Cl)c1 | 0.92 ± 0.072 | 
34 | C[C@H](CO)N1C[C@H](C)[C@H](CN(C)C(=O)Nc2cccc3ccccc23)Oc2c(NC(=O)C3CCOCC3)cccc2C1=O | 0.961 ± 0.19 | 
35 | C[C@@H](NC(=O)[C@@H]1[C@@H](CO)[C@@H]2Cn3c(cccc3=O)[C@@H]2N1CCC(F)(F)F)c1ccccc1 | 1.05 ± 0.015 | 
36 | O=C(C[C@H]1CC[C@H]2[C@@H](COC[C@@H](O)CN2CCC(F)(F)F)O1)NCc1ccc2c(c1)OCO2 | 1.05 ± 0.032 | 
37 | C[C@@H](NC(=O)C[C@@H]1C=C[C@H](NS(=O)(=O)c2cccc(F)c2)[C@@H](CO)O1)c1ccccc1 | 1.07 ± 0.15 | 
38 | O=C(c1ccc2c(c1)OCO2)N1C[C@H]2[C@@H](c3ccccc31)[C@@H](CO)N2C(=O)CC1CC1 | 1.04 ± 0.13 | 
39 | O=C(c1cccc(F)c1)N1CC(=O)N2[C@H](C1)[C@H](c1ccc(/C=C/c3ccccc3)cc1)[C@@H]2CO | 1.07 ± 0.012 | 
40 | C[C@@H]1CN([C@H](C)CO)C(=O)CCCn2nncc2CO[C@@H]1CN(C)Cc1ccc2cccnc2c1 | 1.06 ± 0.06 | 
41 | COc1cccc(C#Cc2ccc3c(c2)O[C@@H](CN(C)C(=O)CN2CCOCC2)[C@@H](C)CN([C@@H](C)CO)S3(=O)=O)c1 | 0.965 ± 0.087 | 
42 | CO[C@@H]1CN(C)C(=O)c2ccc(NS(C)(=O)=O)cc2OC[C@@H](C)N(S(=O)(=O)CC(F)(F)F)C[C@H]1C | 1.0226 ± 0.00026 | 
43 | COc1cccc(-c2ccc([C@@H]3[C@@H]4CN(C(=O)C5CCCCC5)C[C@H]3N4)cc2)c1 | 0.956 ± 0.039 | 
44 | COc1ccc(-c2ccccc2[C@H]2[C@@H](C#N)N(C(=O)C3CCCC3)[C@H]2CO)cc1 |  | 0.907 ± 0.054
